The list shows a part of the results.

In this test the target is T1, OsWOX13 (Oryza sativa, UniProt Q5QMM3 1-267).
T1 sequence: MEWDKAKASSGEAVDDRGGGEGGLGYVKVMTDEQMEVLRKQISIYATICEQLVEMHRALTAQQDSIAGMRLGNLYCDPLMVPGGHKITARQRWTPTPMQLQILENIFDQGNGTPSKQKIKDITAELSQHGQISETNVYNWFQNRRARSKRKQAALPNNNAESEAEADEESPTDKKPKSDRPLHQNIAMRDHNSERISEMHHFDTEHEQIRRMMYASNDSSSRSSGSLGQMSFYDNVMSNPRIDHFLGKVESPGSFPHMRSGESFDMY
The test is described as follows: protein-binding microarray (RPBM); PBS, 2% BSA, 51.3 ng/ul salmon testes DNA, 50 uM zinc acetate, 200 nM TF, 25 C, 1 h; high values mean tight binding. As to conditions: protein: recombinant; tags: N-terminal polyhistidine and DsRed monomer fusion (pET32a); label: CyDye5-dUTP incorporated in the synthesized complementary strand; 3' TTTTT single-stranded linker to array surface; dsDNA, one strand shown. The method, boiled down:
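For the binding signal, per-feature fluorescence intensity was read in arbitrary units on an Axon 4000B scanner. Before scanning, a 2% BSA-blocked custom Agilent array made double-stranded with Cy5-dUTP was washed after 1 h at 25 °C with 200 nM protein and 50 µM zinc acetate. The proteins were Ni–NTA-purified transcription factors with N-terminal polyhistidine and DsRed fusions, expressed in E. coli BL21-CodonPlus.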
For the sequence “ATTGTTCAAAACGTCAATTAATATATAGAACCAATATAGACGGAGTCACCTAGTGCAG”, the binding signal was 5470 fluorescence intensity (a.u.).

Turning to “GTTAAATTGCCACGTAAGCACCACGTCATACCACGTCAGACGGAGTCACCTAGTGCAG”, the binding signal was 16300 fluorescence intensity (a.u.).

With “ATTCAATTAGCAGAACTGCAGATTTAGGAGTCTGTAATTGCGGAGTCACCTAGTGCAG”, the binding signal was 32700 fluorescence intensity (a.u.).

“ATATCATTTTATTGTTGATTTCATGTTAACAAGCTAACCCCGGAGTCACCTAGTGCAG”: the binding signal was 4830 fluorescence intensity (a.u.).

On to “GTTTCATGATTCCTGGCTTGATTGAGTGAAGCATATTCTCCGGAGTCACCTAGTGCAG”, for which the binding signal was 18800 fluorescence intensity (a.u.).

With “CATTCATATAGATATAAATGAATTTAGACATATGTGTGTGCGGAGTCACCTAGTGCAG”, the binding signal was 3680 fluorescence intensity (a.u.).

Turning to “TGATATTGATTCCAATTCCATTCAGGGAAAGAGCCAGAGTCGGAGTCACCTAGTGCAG”, the binding signal was 6750 fluorescence intensity (a.u.).

Consider “AGAAAATAATTTGTTAATTGGTCGATACAAAAGTGCCTTTCGGAGTCACCTAGTGCAG”, for which the binding signal is 30300 fluorescence intensity (a.u.).

On to “CTTCTAATTTCCTAAACTCACAAGTCACAAGTCAACAACTCGGAGTCACCTAGTGCAG”, for which the binding signal was 3150 fluorescence intensity (a.u.).

Turning to “CCAAAGATTCTAAATGATTGGGTTGTATGGTGTGCCTTTTCGGAGTCACCTAGTGCAG”, the binding signal was 12800 fluorescence intensity (a.u.).

On to “GTTAACTTGTCTTGACAGTTGACACGTAGATTTGCGGGCGCGGAGTCACCTAGTGCAG”, for which the binding signal is 5640 fluorescence intensity (a.u.).

With “TTCGATATTGACAATCTCTTCAGCGAAGTAGGCAGACCACCGGAGTCACCTAGTGCAG”, the binding signal was 4990 fluorescence intensity (a.u.).

“TAAAATTCAATTTATCATATGTTATTACTATCTCGTTTTACGGAGTCACCTAGTGCAG”: the binding signal was 3490 fluorescence intensity (a.u.).

As for “ATGGATATAAATTGATGAGTACAGTCCTGAGAACTGCAAGCGGAGTCACCTAGTGCAG”, the binding signal is 32600 fluorescence intensity (a.u.).

As for “AAATAATTTACAGGTAAAACTTTTATAACGATAGTTAATGCGGAGTCACCTAGTGCAG”, the binding signal was 29100 fluorescence intensity (a.u.).

Turning to “CTTTTAGTAACTGCTGTTAATTTAAATACTTGAAAATCCTCGGAGTCACCTAGTGCAG”, the binding signal was 10500 fluorescence intensity (a.u.).

On to “AACAACACCACATCATTAATTACTGCAGTAGACTGTGAGCCGGAGTCACCTAGTGCAG”, for which the binding signal was 4280 fluorescence intensity (a.u.).

Turning to “ACCGTGATTACGGTAATTGGAAATATAAAAGAGATGGGAGCGGAGTCACCTAGTGCAG”, the binding signal is 56800 fluorescence intensity (a.u.).

On to “TTAGCAACTGATTAGTAGCAACTGTATTGGTCTCGAGTACCGGAGTCACCTAGTGCAG”, for which the binding signal was 11600 fluorescence intensity (a.u.).

Regarding “CCGGGATTTTAATTTCTTGGCACCTCGCCTCAGCATATTCCGGAGTCACCTAGTGCAG”, the binding signal was 4600 fluorescence intensity (a.u.).

In the case of “AAGCACTGCAATGACTAAACATTGATTAGTTACCTATGCACGGAGTCACCTAGTGCAG”, the binding signal was 7540 fluorescence intensity (a.u.).

Consider “TAAAATTCAAATTTTATATAGTTCAATTAAACTCGGATGGCGGAGTCACCTAGTGCAG”, for which the binding signal is 6050 fluorescence intensity (a.u.).

For “ATCTGACCGTTAATTGTCATGGGCATTTTAGTCTTTATGTCGGAGTCACCTAGTGCAG”, the binding signal is 3820 fluorescence intensity (a.u.).

Regarding “TGGTCTTGTATAATTTAGGGGTGAAGATTTATGGTATTAACGGAGTCACCTAGTGCAG”, the binding signal was 4280 fluorescence intensity (a.u.).

In the case of “AATAGTTGGCAATAATTGAAAGGATGAAATCCTAATAGTTCGGAGTCACCTAGTGCAG”, the binding signal was 10900 fluorescence intensity (a.u.).

On to “CGCCCCAAATTTGCTAGTGTATGGTCATGAGGATGTATAACGGAGTCACCTAGTGCAG”, for which the binding signal was 3310 fluorescence intensity (a.u.).

For “TTGTCGATTGACTTGTGGGGTCTACGTGGGACTCAACCGCCGGAGTCACCTAGTGCAG”, the binding signal is 8140 fluorescence intensity (a.u.).

Consider “GGCCCATATAATTAGGAATGGACTAGATGGGTATTGAGTACGGAGTCACCTAGTGCAG”, for which the binding signal is 5070 fluorescence intensity (a.u.).

In the case of “TGCCTGACTGAATATGTGTGGTCAATCTGAAGACTGCTAACGGAGTCACCTAGTGCAG”, the binding signal is 4370 fluorescence intensity (a.u.).

As for “AAATAATTATATAGATTATGTGTAAATTACGAGACAAATCCGGAGTCACCTAGTGCAG”, the binding signal is 19600 fluorescence intensity (a.u.).

For “TATGATTTATTGAATTCTACAAACCGAAATGCAAACATATCGGAGTCACCTAGTGCAG”, the binding signal is 24000 fluorescence intensity (a.u.).

In the case of “GTACTAATTAATTACCATCCTAATTTAGACCATCTTTATACGGAGTCACCTAGTGCAG”, the binding signal is 35500 fluorescence intensity (a.u.).

On to “ATCAGAGCTAAATTGAATTAATGAGGGTAAATTGGTCATTCGGAGTCACCTAGTGCAG”, for which the binding signal was 15700 fluorescence intensity (a.u.).

As for “AACAAATTAAATAATCCACGAGTTCATTATCATCATGTAACGGAGTCACCTAGTGCAG”, the binding signal was 8320 fluorescence intensity (a.u.).

Take “CTTCTAATTATTTGATATTAGGTCCTTCCTAATATTCGTACGGAGTCACCTAGTGCAG”: the binding signal is 18200 fluorescence intensity (a.u.).

Take “CATTGATCAATTTGAAGATGGATTGATATGGAAATCTTAACGGAGTCACCTAGTGCAG”: the binding signal was 32000 fluorescence intensity (a.u.).

On to “GGGCTTAAATTAGATTGGGCCGGCCGTGCTGAGAAGCCTGCGGAGTCACCTAGTGCAG”, for which the binding signal was 21200 fluorescence intensity (a.u.).

Turning to “AACCACTCAAATCTGAAATCAATCACCGAACCCAAGTGACCGGAGTCACCTAGTGCAG”, the binding signal is 16300 fluorescence intensity (a.u.).

For the sequence “TTTTATAATTCGATGACAAATTGAGAGACCTTGGGTGTACCGGAGTCACCTAGTGCAG”, the binding signal is 13200 fluorescence intensity (a.u.).

Consider “TCAAATGCTAATTAACAGACAACTAATCTTCCTCTCTCATCGGAGTCACCTAGTGCAG”, for which the binding signal was 24200 fluorescence intensity (a.u.).

In the case of “TGATTGATTGAGTTTTAATTATTATAAACTTGAAAATTAGCGGAGTCACCTAGTGCAG”, the binding signal is 47800 fluorescence intensity (a.u.).

Take “TGTCTCAATAAATTGATCGTTGGCAAAATCGGTTAGTCGTCGGAGTCACCTAGTGCAG”: the binding signal is 16900 fluorescence intensity (a.u.).

Source of the values: PMC7819943, “Rice protein-binding microarrays: a tool to detect cis-acting elements near promoter regions in rice”.
